Reference: the supplement of paper PMC11417369
± gives the standard deviation of the averaged measurements. This is one part of the list.

What follows are sequences tested on PfAP2-I AP2 domain 3 (GST-tagged) (assay: gcPBM binding intensity (ln(normalized median fluorescence intensity)); higher = stronger DNA binding).
How it was run: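 Each value is the highest Masliner-normalised natural-log median intensity across replicate spots of either orientation of a probe. The probes were primer-extended double-stranded 36-bp intergenic genomic sequences on an Agilent 4 × 180k array, alongside negative controls, exposed for 1 h to GST-tagged P. falciparum DNA-binding domains expressed in E. coli. Bound protein was picked up with Alexa488 anti-GST antibody and scanned at 488 nm.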

Sequence | gcPBM binding intensity (ln)
CATATAATAAATAATACACACATATTGGAAATATAT [CACACA_site3212] | 7.8 ± 0.48
AAAGGTATATATGTGTGTACATATATATATATATAT [XGTACX_site5629] | 9.09 ± 0.54
CACATTTCTGTAGTTGCATGTAGAAAAAAAAAAAAA [TGCATGCA_site810] | 8.14 ± 0.7
TTTTGAGAAAAAATAAAATAATAAATAAAAATACAT [XGTACX_negctrl_site66] | 7.78 ± 0.58
AATACAATTGAAAATTGTACTTTGTTTTTTATAAAT [XGTACX_site4080] | 7.45 ± 0.47
GATTTATATTTTAAAAGTACAAGTTAAAATAAAAGT [XGTACX_site7059] | 8.21 ± 0.35
TTTGATTTTAATGTGTGTACACATTTATTTATATAA [XGTACX_site4806] | 8 ± 0.042
ATATAATATCTGTATACACACATATTATATAATATT [CACACA_site5940] | 7.86 ± 0.51
AATATAAGATTATTATGTACATAATAAATATGTATT [XGTACX_site4773] | 7.86 ± 0.23
ATATAAGTATAATTATGTACTTATACTTATATAAAT [XGTACX_site5585] | 7.57 ± 0.26
GGTCATCATCGGTATTGTACAAAAATGTGAAAATTA [XGTACX_site639] | 8.06 ± 0.37
TTTTTTTTTTTGGTTACACACATTTGTATATTCTCA [CACACA_site134] | 8.24 ± 0.66
CATATTAATACAGAATGTACGGATAACAAACTGTTT [XGTACX_site7935] | 7.58 ± 0.64
CCATAACTCCTATGCACACATAAATATTACAGAGAT [CACACA_site5984] | 9.04 ± 0.092
TTTTATTTAGGAGGTGCATGTAATACGGAACATAAT [TGCATGCA_site827] | 9.56 ± 0.22
ATTAGTTTATATGAATGATTTTTCTTTTTTTTTTTT [CACACA_negctrl_site88] | 7.31 ± 0.51
TTACTATTTCACTGTGCATGCAACAAAAATCTATCT [TGCATGCA_site808] | 9.38 ± 0.57
ATATTTTGGGTGTTGTTTTTTTTTAAAACTCTTTAA [CACACA_negctrl_site1255] | 8.04 ± 0.59
AAAAAAAAAAAAAATAATAAATAAATAAATAAATAA [GTGCAC_negctrl_site505] | 8.41 ± 0.85
CGTAGCCGCACTAACACACACAAATATACGCAATCA [CACACA_site2898] | 9.13 ± 0.2
AAAAATAAAAAAAAATTAAAATATATATATTTTGTT [TGCATGCA_negctrl_site102] | 7.49 ± 0.67
AGGAAAAAAAGTAGCACACAAATATTTATAATATAT [CACACA_site2437] | 7.88 ± 0.64

Sequence | gcPBM binding intensity (ln)
AACATATTTATATACACACACATATTTATATGAAAT [CACACA_site6268] | 7.82 ± 0.56
GAGAGGATACATACATGTACATAAATATTTTATTTT [XGTACX_site5129] | 7.86 ± 0.37
TTTTTATAACAAAGTATTTAAATAATTTATACTAAT [TGCATGCA_negctrl_site104] | 7.47 ± 0.47
GAACAAATTACAAGTTGTACTTTATGTAAATTATTA [XGTACX_site5304] | 7.65 ± 0.3
ATGCGTTCATACATACATACATACATACAATTTGTA [TGCATGCA_negctrl_site50] | 7.91 ± 0.6
AACATTTATATTTAAGTGCAGATGCTGTAATTTAGA | 8.46 ± 0.26
TTTTGAATTAAACAAGCATGCTTTATTTACTTCTTA [TGCATGCA_site289] | 7.59 ± 0.86
TAATTCATCCTATGCACACACAATACCAAAATGTGC [CACACA_site4269] | 8.95 ± 0.16
TAATTTATTAATAATTGTACAGATATTATACTTAAA [XGTACX_site8947] | 7.46 ± 0.32
TGCTCATGAGGTCAGAGTACAAAATAGTAAATGTAT [XGTACX_site2973] | 7.93 ± 0.8
TTTTTTTTTTTTTTTCTTTTTTATTCTCACAAAAAA [CACACA_negctrl_site1790] | 8.2 ± 0.74
TTTATTTTTATTTTTGTGCACGGGATTAAATAAAAG [GTGCAC_site9842] | 11.22 ± 0.092
ATATTTTTTCTGAACGGTACAGAATTTTTCAAGATT [XGTACX_site484] | 7.78 ± 0.64
TATATATATCTGTATACACACATATGTATGTTATGT [CACACA_site6090] | 8.01 ± 0.64
CCTTTTTCTAATGGATGTACTTATTATATACATTAT [XGTACX_site281] | 7.86 ± 0.54
AAGAAAAGTAAATATGCATGTAGGGTAGGTTATTTT [TGCATGCA_site46] | 8.31 ± 0.93
AAATTTATATATAGTTGTACAAAAATATGTTTCGTA [XGTACX_site4801] | 7.78 ± 0.44
TTATTTTATCACACATGTACATATGTTAATTTTTTT [XGTACX_site5598] | 8.11 ± 0.53
AAAATAAAAAGAAATAAATTAACAGTAAGGAAAAAA [CACACA_negctrl_site1105] | 7.86 ± 0.8
TGAATAATCAATAGTACACACATATAAATATATATA [CACACA_site2813] | 8.01 ± 0.65
GCACGAAACAATGTATATATATATATATATATATAT [GTGCAC_negctrl_site412] | 9.52 ± 0.52
TTCTTTATGGAAGTGTAAAAAAAGAAATACTTTTTT [CACACA_negctrl_site915] | 7.44 ± 0.57
